According to paper PMC4336329 (PLoS ONE, 2015):
The whole screen tested about 310,000 compounds, of which about 14,000 (4.5%) showed an effect of 50% or more. Effects have a minus sign here. Some of the results follow.

Target: human ether-à-go-go-related gene (hERG) potassium channel (human, UniProt Q12809)
Experiment: primary screen, population patch clamp on CHO cells stably expressing hERG
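Further: peak tail current of the secondary pulse compared with the same well before compound.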

human ether-à-go-go-related gene (hERG) potassium channel, sequence (Q12809 whole entry, looked up): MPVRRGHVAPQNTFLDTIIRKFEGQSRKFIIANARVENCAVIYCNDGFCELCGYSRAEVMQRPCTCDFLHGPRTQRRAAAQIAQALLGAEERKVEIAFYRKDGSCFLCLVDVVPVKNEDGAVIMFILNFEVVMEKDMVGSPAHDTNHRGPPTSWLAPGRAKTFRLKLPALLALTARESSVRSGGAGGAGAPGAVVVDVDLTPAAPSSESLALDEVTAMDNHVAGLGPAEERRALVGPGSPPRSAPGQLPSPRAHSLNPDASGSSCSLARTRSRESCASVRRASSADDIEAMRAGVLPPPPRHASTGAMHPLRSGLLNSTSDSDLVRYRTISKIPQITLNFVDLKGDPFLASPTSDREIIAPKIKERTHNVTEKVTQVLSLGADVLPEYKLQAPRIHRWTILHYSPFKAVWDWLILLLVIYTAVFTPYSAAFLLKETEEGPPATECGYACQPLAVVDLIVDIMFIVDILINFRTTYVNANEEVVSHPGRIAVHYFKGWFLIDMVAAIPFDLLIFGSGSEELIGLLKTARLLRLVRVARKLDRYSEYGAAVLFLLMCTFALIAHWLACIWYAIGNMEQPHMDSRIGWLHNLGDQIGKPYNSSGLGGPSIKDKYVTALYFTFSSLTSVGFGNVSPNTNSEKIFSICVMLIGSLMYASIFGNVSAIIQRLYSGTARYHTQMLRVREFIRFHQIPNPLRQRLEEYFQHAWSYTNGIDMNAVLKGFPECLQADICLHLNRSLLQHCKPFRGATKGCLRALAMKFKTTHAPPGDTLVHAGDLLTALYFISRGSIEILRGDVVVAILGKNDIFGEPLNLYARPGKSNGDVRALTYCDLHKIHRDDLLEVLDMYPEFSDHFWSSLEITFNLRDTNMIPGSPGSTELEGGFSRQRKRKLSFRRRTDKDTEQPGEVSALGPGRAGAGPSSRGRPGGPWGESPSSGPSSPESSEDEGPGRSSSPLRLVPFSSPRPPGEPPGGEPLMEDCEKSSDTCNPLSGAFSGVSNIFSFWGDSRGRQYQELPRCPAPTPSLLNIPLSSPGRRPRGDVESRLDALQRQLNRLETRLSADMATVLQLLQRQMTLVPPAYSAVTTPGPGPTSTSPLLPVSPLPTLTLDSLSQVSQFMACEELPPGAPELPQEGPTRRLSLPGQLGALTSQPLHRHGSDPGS

Compound | hERG current change (%, negative = inhibition) at 10uM
N/C(=N\OC(=O)c1cccs1)c1ccccc1 | 3.32%
Cc1cc(-n2c(SCC(=O)Nc3ccc(F)c(F)c3)nc3n[nH]c(C)c3c2=N)ccc1Cl | 13.3%
O=C(NCc1cccc(Cl)c1)c1ccc(N2CC3CC(C2)c2cccc(=O)n2C3)c(NC(=O)c2cccnc2)c1 (stereo not drawn) | -0.865%
COc1cc(OC)cc(C(=O)Nc2cccc(N3CCCC3)c2)c1 | 11.1%
CC(=O)Nc1cccc(C(=O)OCC(=O)NNC(=O)c2cccs2)c1 | 21.1%
CCOP(=O)(OCC)C(NC(=O)c1ccccc1Cl)=C(Cl)Cl | 15.4%
C=CCOc1ccccc1/C=N/NC(=O)Cc1ccc(C)cc1 | 8.17%
Cc1ccc(NC(=O)N(CCC#N)Cc2ccccc2)cc1 | -25.5%
CC(c1cccs1)N(Cc1ccco1)C(=S)Nc1ccccc1Cl (stereo not drawn) | 12.1%
COc1ccc(CNC(=O)C2CCN(c3nccs3)CC2)cc1 | -31.8%
CCN1CCCC1CNC(=O)C(=O)NC1CC1 (stereo not drawn) | 10.3%
Cc1cc(C(=O)Nc2ccc(N3CCOCC3)cc2)c2ccccc2n1 | -6.8%
COc1ccc(CCNC(=O)C(=O)NCC2CCCO2)cc1OC (stereo not drawn) | 3.13%
Cn1cccc1/C=N/n1c(-c2ccc(C(C)(C)C)cc2)n[nH]c1=S | 11.8%
CN(C)S(=O)(=O)N(CC(=O)N1CCN(Cc2ccccc2)CC1)c1ccccc1 | -17.5%
CCOC(=O)c1c(NC(=O)CN2CCCCC2)sc(CN(C)C)c1-c1ccccc1 | 7.78%
O=C(Nc1ccc2nccnc2c1)c1cnccn1 | 16.9%
CCN(C(=O)C12CC3CC(CC(C3)C1)C2)C1CCS(=O)(=O)C1 (stereo not drawn) | 12.2%
O=C(CSc1nnc(-c2ccc(Cl)cc2)n1-c1ccc(Cl)cc1)N/N=C/c1ccco1 | -41.7%
COC(=O)c1ccc(C2CC(=O)Nc3cc(OC)c(OC)c(OC)c32)cc1 (stereo not drawn) | -13.5%
CC(C)n1c(N2CCN(C(=O)Nc3ccc(Cl)cc3)CC2)nc2ccccc21 | -36.3%

Compound | hERG current change (%, negative = inhibition) at 10uM
Cn1c(=O)c2c(nc(NCC3CCCC(CN)C3)n2Cc2ccc(Cl)cc2Cl)n(C)c1=O (stereo not drawn) | -11.6%
Cc1ccc(OCc2ccc(-c3ccccc3)cc2)c([N+](=O)[O-])n1 | -0.0811%
COc1ccccc1C(=O)NC(CCSC)C(=O)NNC(=O)c1ccncc1 (stereo not drawn) | 2.99%
Cc1ccc(OCC(=O)Nc2nnc(C3CCCO3)s2)c(Br)c1 (stereo not drawn) | 23%
Cc1c(CC(=O)NCC(=O)NCC(=O)O)c(=O)oc2c(C)c3oc4c(c3cc12)CCCC4 | 11.3%
O=C(COC(=O)c1ccc([N+](=O)[O-])s1)NC(=O)NCc1ccccc1 | -37.8%
O=C(Nc1ccccc1)N(Cc1cccnc1)Cc1ccco1 | -32.9%
COc1cc2c(cc1OC)C(C(C)C)=NC(C)(C)C2.Cl | -1.99%
COc1ccc(N2CCCn3c2nc2c3c(=O)n(CCCc3ccccc3)c(=O)n2C)cc1 | -25.1%
Cc1ccc(-c2nc3ccccc3c(=O)n2-c2c(C)n(C)n(-c3ccccc3)c2=O)cc1 | -6.04%
Cc1cccc(OCCCC(=O)NNC(=O)c2ccccn2)c1 | -15.6%
C/C(=N\NC(=O)COc1ccc(C)cc1Br)c1cc([N+](=O)[O-])cs1 | -14.8%
CCC(=O)NCCNC(=O)c1c(SC)nsc1SC | 4.67%
O=C(O)COc1ccc2c(-c3ccccc3)cc(=O)oc2c1 | -8.99%
CCn1c(SCC#N)nc2ccccc2c1=O | 2.7%
COCc1cc(=O)[nH]c(SCCS(=O)(=O)c2ccc(Cl)cc2Cl)n1 | 13.1%
O=C(O)CN=C(NS(=O)(=O)c1ccccc1)c1ccccc1 | -5.93%
Cc1ccc(-c2cc(C(=O)N3CCN(C4CCS(=O)(=O)C4)CC3)c3ccccc3n2)cc1 (stereo not drawn) | -60.7%
O=C(Nc1ccc(Cl)cc1)C1CC(=O)n2c(nc3ccccc32)N1 (stereo not drawn) | 8.83%
COc1ccc(CCN2CCCC(CN(C)C(=O)c3ccoc3C)C2)cc1 (stereo not drawn) | 13.4%
Cc1cccc(OCC(=O)Nc2ccc3c(c2)nc(CCN2CCCCC2)n3C)c1 | -77.2%
